{"source": "paper PMC4336329", "about": "(PLoS ONE, 2015)", "note": "About 2,200 (0.71%) of roughly 310,000 compounds showed an effect of 50% or more. The effect is printed as a negative number. The list shows a part of the results."}
{"molecular_target": "human ether-à-go-go-related gene (hERG) potassium channel (human, UniProt Q12809)", "sequence (Q12809 whole entry, looked up)": "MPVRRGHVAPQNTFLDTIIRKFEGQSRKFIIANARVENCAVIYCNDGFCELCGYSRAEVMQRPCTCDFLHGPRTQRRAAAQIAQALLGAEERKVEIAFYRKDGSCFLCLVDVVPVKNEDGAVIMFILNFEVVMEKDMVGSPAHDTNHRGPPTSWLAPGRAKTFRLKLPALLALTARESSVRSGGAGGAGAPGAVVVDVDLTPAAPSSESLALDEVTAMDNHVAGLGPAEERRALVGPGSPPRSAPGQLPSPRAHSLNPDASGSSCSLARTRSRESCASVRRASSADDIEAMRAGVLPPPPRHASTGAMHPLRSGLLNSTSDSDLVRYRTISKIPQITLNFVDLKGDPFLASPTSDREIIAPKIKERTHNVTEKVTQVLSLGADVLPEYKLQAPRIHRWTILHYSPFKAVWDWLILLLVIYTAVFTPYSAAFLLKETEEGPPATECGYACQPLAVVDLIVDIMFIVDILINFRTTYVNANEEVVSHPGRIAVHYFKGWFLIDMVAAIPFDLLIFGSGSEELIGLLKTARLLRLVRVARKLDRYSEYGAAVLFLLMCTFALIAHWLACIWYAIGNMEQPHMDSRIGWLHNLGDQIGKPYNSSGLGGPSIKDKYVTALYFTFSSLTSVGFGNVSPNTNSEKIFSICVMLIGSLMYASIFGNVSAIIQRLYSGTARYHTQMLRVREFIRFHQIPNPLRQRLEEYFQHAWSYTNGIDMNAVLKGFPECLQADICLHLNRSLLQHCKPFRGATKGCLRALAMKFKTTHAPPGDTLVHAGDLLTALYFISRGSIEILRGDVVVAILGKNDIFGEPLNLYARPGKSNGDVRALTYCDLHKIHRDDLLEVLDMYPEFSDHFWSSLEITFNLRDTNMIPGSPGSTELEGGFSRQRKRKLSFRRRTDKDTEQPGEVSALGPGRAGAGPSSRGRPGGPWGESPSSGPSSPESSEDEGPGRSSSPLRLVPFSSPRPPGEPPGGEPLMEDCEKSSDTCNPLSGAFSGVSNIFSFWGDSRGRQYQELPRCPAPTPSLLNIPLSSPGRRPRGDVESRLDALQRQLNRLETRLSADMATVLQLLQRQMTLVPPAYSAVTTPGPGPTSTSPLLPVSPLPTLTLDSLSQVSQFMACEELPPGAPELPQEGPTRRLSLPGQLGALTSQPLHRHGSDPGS", "assay": "primary screen, population patch clamp on CHO cells stably expressing hERG", "units": {"hERG current change (%, negative = inhibition) at 1uM": "%"}}
{"smiles": "Cc1noc(C)c1S(=O)(=O)Nc1ccc(C(=O)N2CCN(c3cccc(Cl)c3)CC2)cc1", "hERG current change (%, negative = inhibition) at 1uM": 3.09}
{"smiles": "C#CCOCCOCCOCCNc1nc(N2CCN(C(=O)[C@H](Cc3cc4ccccc4[nH]3)n3cc([C@@H](N)C(C)CC)nn3)CC2)nc(N2CCN(C(=O)[C@H](Cc3cc4ccccc4[nH]3)n3cc([C@@H](N)CC(C)C)nn3)CC2)n1.Cl", "note": "(stereo partly shown)", "hERG current change (%, negative = inhibition) at 1uM": 0.297}
{"smiles": "COc1ccc(C(=O)O)nc1C", "hERG current change (%, negative = inhibition) at 1uM": 14.1}
{"smiles": "CN(Cc1ccon1)C(=O)C1CCN(C2CCN(CCCc3ccccc3)CC2)CC1", "hERG current change (%, negative = inhibition) at 1uM": -1.33}
{"smiles": "CCCCNCCCOc1cc(Cl)ccc1Cl.O=C(O)C(=O)O", "hERG current change (%, negative = inhibition) at 1uM": -12.1}
{"smiles": "CCOc1ccc(S(=O)(=O)N2CCN(C(=O)CN3C(=O)NC(C)(C)C3=O)CC2)cc1", "hERG current change (%, negative = inhibition) at 1uM": 8.94}
{"smiles": "CC(C)c1ccc(-c2nc(N3CCCCCC3)nc3n[nH]c(N)c23)cc1", "hERG current change (%, negative = inhibition) at 1uM": 10.2}
{"smiles": "C/C(=N\\NC(=O)C1CC1)c1ccc2c(c1)OCCO2", "hERG current change (%, negative = inhibition) at 1uM": 12}
{"smiles": "Cn1c(=O)c(-c2cccc(Cl)c2)c(O)c2ccccc21", "hERG current change (%, negative = inhibition) at 1uM": 8.79}
{"smiles": "CCOc1cc(/C=N\\NC(=O)Cc2ccccc2)ccc1OCC(=O)Nc1ccc(C)c(C)c1", "hERG current change (%, negative = inhibition) at 1uM": 11.8}
{"smiles": "FC(F)(F)c1nc(-c2cccs2)ncc1-c1nnnn1-c1ccc(Cl)cc1", "hERG current change (%, negative = inhibition) at 1uM": 2.14}
{"smiles": "CCN(CC)c1c2c(c(C#N)c3nc4ccccc4n13)CCC2", "hERG current change (%, negative = inhibition) at 1uM": 9.16}
{"smiles": "S=C(NCCc1ccccc1)Nc1ccc(N2CCCCC2)cc1", "hERG current change (%, negative = inhibition) at 1uM": 11.1}
{"smiles": "Oc1ccc(N=Cc2ccc(O)c(O)c2)cc1", "hERG current change (%, negative = inhibition) at 1uM": 5.6}
{"smiles": "CS(=O)(=O)N1CCN(c2ccc(NC(=O)COc3ccccc3[N+](=O)[O-])cc2)CC1", "hERG current change (%, negative = inhibition) at 1uM": 10.3}
{"smiles": "O=C(CSC1=NS(=O)(=O)c2ccccc2N1)NCCc1ccccc1", "hERG current change (%, negative = inhibition) at 1uM": 4.74}
{"smiles": "COc1ccc(NS(=O)(=O)c2ccc3oc(=S)[nH]c3c2)cc1", "hERG current change (%, negative = inhibition) at 1uM": 17.9}
{"smiles": "CC(C)(C)C1(O)CC(C(F)(F)F)=NN1C(=O)CCCc1ccccc1", "note": "(stereo not shown)", "hERG current change (%, negative = inhibition) at 1uM": 3.57}
{"smiles": "COC(=O)CSC1=C(C#N)C(=O)NC(c2ccccc2)S1", "note": "(stereo not shown)", "hERG current change (%, negative = inhibition) at 1uM": 12.1}
{"smiles": "COc1ccc(/C(O)=C2/C(=O)C(=O)N(c3ncccn3)C2c2ccc(F)cc2)cc1", "note": "(stereo not shown)", "hERG current change (%, negative = inhibition) at 1uM": 8.4}
{"smiles": "COc1ccc(OC)c(-c2csc(NC(=O)CSc3ccc(Br)cc3)n2)c1", "hERG current change (%, negative = inhibition) at 1uM": 16.3}
{"smiles": "COc1cc(NC(=O)c2ccccc2)c(OC)cc1NC(=O)CSc1[nH]c(=O)cc(C)c1C#N", "hERG current change (%, negative = inhibition) at 1uM": 10.7}
